Positions count from the first letter of the chain named. Results are given in words; binding and its absence hold for the method and conditions named. In cells and extracts the contact can be indirect. Some results given as binding are weak or reduced against the parent protein; the word gives no strength. For some of these results: Tags and fused reporters may be left off the sequences shown.
Columns and labels:
[1] = target: T1, FLAG-tagged GBP5 (guanylate-binding protein 5) (UniProt Q96PP8); assay: co-IP; HEK 293T cells co-transfected 48 h with FLAG-GBP5 constructs and MYC-tagged OST subunits; lysates immunoprecipitated with anti-FLAG on Dynabeads Protein G overnight at 4°C; washes include Pierce IP Lysis Buffer with 500 mM NaCl; anti-MYC blot
T1 sequence: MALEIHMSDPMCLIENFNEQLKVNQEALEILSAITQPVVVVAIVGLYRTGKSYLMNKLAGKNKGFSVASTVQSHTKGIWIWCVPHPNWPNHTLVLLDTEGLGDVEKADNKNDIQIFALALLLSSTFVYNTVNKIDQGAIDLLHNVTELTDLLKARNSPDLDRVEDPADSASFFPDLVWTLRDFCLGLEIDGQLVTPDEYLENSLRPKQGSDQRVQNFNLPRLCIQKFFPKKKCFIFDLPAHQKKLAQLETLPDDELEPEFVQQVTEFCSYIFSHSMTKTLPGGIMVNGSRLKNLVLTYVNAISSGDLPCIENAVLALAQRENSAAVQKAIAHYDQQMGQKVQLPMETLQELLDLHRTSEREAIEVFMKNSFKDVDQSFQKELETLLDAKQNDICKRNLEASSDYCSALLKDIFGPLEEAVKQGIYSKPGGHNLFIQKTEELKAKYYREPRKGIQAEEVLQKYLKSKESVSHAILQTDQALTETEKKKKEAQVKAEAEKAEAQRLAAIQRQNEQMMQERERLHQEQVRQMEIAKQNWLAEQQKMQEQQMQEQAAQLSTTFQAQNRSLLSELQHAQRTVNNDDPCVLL

[2] = target: T2, FLAG-GBP5 mutant M5 (E417A/K421A) (UniProt Q96PP8); assay: as above
T2 sequence: T1 sequence with E417A, K421A

[3] = target: T3, endogenous GBP5 (induced by IFN-γ) (human (endogenous in HEK 293T)) (UniProt Q96PP8); assay: co-IP; HEK 293T cells treated with IFN-γ to induce GBP5; endogenous GBP5 immunoprecipitated with an anti-GBP5 antibody; blots for RPN1, RPN2, DDOST
T3 sequence: T1 sequence

[4] = target: T1, FLAG-tagged GBP5 (guanylate-binding protein 5); assay: co-IP; HEK 293T cells transfected 48 h with FLAG-GBP5 or FLAG-GBP5-C583A; anti-FLAG immunoprecipitation; washes include 500 mM NaCl; blots for endogenous RPN2, RPN1, DDOST
[5] = target: T4, FLAG-tagged GBP5-C583A (UniProt Q96PP8); assay: as above
T4 sequence: T1 sequence with C583A

B1: MYC-tagged RPN1 (protein, UniProt P04843 24-607)
chain: ASSEAPPLINEDVKRTVDLSSHLAKVTAEVVLAHLGGGSTSRATSFLLALEPELEARLAHLGVQVKGEDEEENNLEVRETKIKGKSGRFFTVKLPVALDPGAKISVIVETVYTHVLHPYPTQITQSEKQFVVFEGNHYFYSPYPTKTQTMRVKLASRNVESYTKLGNPTRSEDLLDYGPFRDVPAYSQDTFKVHYENNSPFLTITSMTRVIEVSHWGNIAVEENVDLKHTGAVLKGPFSRYDYQRQPDSGISSIRSFKTILPAAAQDVYYRDEIGNVSTSHLLILDDSVEMEIRPRFPLFGGWKTHYIVGYNLPSYEYLYNLGDQYALKMRFVDHVFDEQVIDSLTVKIILPEGAKNIEIDSPYEISRAPDELHYTYLDTFGRPVIVAYKKNLVEQHIQDIVVHYTFNKVLMLQEPLLVVAAFYILFFTVIIYVRLDFSITKDPAAEARMKVACITEQVLTLVNKRIGLYRHFDETVNRYKQSRDISTLNSGKKSLETEHKALTSEIALLQSRLKTEGSDLCDRVSEMQKLDAQVKELVLKSAVEAERLVAGKLKKDTYIENEKLISGKRQELVTKIDHILDAL
- binding [1]: binds
- binding [2]: no binding

B2: MYC-tagged DDOST (protein, UniProt P39656 43-456)
chain: SGPRTLVLLDNLNVRETHSLFFRSLKDRGFELTFKTADDPSLSLIKYGEFLYDNLIIFSPSVEDFGGNINVETISAFIDGGGSVLVAASSDIGDPLRELGSECGIEFDEEKTAVIDHHNYDISDLGQHTLIVADTENLLKAPTIVGKSSLNPILFRGVGMVADPDNPLVLDILTGSSTSYSFFPDKPITQYPHAVGKNTLLIAGLQARNNARVIFSGSLDFFSDSFFNSAVQKAAPGSQRYSQTGNYELAVALSRWVFKEEGVLRVGPVSHHRVGETAPPNAYTVTDLVEYSIVIQQLSNGKWVPFDGDDIQLEFVRIDPFVRTFLKKKGGKYSVQFKLPDVYGVFQFKVDYNRLGYTHLYSSTQVSVRPLQHTQYERFIPSAYPYYASAFSMMLGLFIFSIVFLHMKEKEKSD
- binding [1]: binds
- binding [2]: no binding

B3: endogenous RPN1 (protein, UniProt P04843 24-607)
chain: B1 chain
- binding [3]: binds
- binding [4]: binds
- binding [5]: no binding

B4: endogenous DDOST (protein, UniProt P39656 43-456)
chain: B2 chain
- binding [3]: binds
- binding [4]: binds
- binding [5]: no binding
